One experiment concerns the target FLAG-tagged HDAC1 (UniProt Q13547). Description: co-IP; both partners transfected into HEK293 (one FLAG-tagged, one Myc-tagged), lysed after 48 h, anti-FLAG agarose beads 4 h at 4 °C, 4 washes with 150 mM NaCl and 0.5% Triton X-100, blot; in Fig. 5b cells also UV-treated to activate JNK.
Another experiment has as its target FLAG-tagged HDAC3 (UniProt O15379). The experiment is described as above.
In experiment [1] the target is FLAG-WDR13 (UniProt Q91V09). As to the kind of experiment: co-IP; FLAG-WDR13 or its FLAG-tagged deletion constructs over-expressed in HEK293, immunocomplex purified with anti-FLAG agarose beads, blots for the partner proteins of the cells (endogenous in Fig. 6a).
The target of experiment [2] is FLAG-WDR13 (UniProt Q91V09). As to the kind of experiment: co-IP; both partners transfected into HEK293 (one FLAG-tagged, one Myc-tagged), lysed after 48 h, anti-FLAG agarose beads 4 h at 4 °C, 4 washes with 150 mM NaCl and 0.5% Triton X-100, blot; in Fig. 5b cells also UV-treated to activate JNK.
Experiment [3] addresses T1, FLAG-tagged WDR13 deletion construct FL-193 (UniProt Q91V09).
T1 sequence: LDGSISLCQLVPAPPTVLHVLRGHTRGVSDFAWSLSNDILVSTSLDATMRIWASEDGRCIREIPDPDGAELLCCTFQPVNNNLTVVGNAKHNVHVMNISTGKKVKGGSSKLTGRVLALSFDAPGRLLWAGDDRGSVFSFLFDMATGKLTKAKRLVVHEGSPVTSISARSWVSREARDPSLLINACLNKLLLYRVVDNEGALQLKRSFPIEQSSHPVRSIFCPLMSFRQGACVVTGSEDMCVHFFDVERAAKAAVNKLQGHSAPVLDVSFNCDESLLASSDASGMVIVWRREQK
As to the kind of experiment: co-IP; FLAG-WDR13 or its FLAG-tagged deletion constructs over-expressed in HEK293, immunocomplex purified with anti-FLAG agarose beads, blots for the partner proteins of the cells (endogenous in Fig. 6a).

The chains behind the UniProt entries cited, without tags or fusion partners.
UniProt Q13547: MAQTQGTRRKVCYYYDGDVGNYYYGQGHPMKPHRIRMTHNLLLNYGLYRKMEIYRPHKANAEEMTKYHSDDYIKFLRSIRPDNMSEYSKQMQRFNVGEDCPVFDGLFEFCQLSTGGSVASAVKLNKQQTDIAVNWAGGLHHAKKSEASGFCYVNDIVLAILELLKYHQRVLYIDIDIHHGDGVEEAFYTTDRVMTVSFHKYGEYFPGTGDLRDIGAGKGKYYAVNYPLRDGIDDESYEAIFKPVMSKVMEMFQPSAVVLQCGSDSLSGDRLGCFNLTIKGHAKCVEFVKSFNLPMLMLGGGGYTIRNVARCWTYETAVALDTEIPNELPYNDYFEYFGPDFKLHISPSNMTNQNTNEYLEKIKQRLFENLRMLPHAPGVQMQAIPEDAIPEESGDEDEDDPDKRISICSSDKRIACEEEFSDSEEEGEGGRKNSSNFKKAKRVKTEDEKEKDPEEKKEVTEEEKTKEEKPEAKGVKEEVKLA
UniProt O15379: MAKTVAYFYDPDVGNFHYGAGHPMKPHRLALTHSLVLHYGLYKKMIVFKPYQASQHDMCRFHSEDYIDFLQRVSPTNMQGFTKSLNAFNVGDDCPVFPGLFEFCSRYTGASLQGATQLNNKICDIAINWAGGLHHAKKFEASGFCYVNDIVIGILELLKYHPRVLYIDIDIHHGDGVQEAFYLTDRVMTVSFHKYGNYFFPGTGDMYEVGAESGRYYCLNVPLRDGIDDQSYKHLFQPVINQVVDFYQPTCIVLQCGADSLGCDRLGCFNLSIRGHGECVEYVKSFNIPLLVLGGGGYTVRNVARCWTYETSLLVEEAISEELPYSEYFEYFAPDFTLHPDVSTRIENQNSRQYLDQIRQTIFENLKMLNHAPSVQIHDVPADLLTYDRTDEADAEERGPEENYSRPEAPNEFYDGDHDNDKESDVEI
UniProt O75376: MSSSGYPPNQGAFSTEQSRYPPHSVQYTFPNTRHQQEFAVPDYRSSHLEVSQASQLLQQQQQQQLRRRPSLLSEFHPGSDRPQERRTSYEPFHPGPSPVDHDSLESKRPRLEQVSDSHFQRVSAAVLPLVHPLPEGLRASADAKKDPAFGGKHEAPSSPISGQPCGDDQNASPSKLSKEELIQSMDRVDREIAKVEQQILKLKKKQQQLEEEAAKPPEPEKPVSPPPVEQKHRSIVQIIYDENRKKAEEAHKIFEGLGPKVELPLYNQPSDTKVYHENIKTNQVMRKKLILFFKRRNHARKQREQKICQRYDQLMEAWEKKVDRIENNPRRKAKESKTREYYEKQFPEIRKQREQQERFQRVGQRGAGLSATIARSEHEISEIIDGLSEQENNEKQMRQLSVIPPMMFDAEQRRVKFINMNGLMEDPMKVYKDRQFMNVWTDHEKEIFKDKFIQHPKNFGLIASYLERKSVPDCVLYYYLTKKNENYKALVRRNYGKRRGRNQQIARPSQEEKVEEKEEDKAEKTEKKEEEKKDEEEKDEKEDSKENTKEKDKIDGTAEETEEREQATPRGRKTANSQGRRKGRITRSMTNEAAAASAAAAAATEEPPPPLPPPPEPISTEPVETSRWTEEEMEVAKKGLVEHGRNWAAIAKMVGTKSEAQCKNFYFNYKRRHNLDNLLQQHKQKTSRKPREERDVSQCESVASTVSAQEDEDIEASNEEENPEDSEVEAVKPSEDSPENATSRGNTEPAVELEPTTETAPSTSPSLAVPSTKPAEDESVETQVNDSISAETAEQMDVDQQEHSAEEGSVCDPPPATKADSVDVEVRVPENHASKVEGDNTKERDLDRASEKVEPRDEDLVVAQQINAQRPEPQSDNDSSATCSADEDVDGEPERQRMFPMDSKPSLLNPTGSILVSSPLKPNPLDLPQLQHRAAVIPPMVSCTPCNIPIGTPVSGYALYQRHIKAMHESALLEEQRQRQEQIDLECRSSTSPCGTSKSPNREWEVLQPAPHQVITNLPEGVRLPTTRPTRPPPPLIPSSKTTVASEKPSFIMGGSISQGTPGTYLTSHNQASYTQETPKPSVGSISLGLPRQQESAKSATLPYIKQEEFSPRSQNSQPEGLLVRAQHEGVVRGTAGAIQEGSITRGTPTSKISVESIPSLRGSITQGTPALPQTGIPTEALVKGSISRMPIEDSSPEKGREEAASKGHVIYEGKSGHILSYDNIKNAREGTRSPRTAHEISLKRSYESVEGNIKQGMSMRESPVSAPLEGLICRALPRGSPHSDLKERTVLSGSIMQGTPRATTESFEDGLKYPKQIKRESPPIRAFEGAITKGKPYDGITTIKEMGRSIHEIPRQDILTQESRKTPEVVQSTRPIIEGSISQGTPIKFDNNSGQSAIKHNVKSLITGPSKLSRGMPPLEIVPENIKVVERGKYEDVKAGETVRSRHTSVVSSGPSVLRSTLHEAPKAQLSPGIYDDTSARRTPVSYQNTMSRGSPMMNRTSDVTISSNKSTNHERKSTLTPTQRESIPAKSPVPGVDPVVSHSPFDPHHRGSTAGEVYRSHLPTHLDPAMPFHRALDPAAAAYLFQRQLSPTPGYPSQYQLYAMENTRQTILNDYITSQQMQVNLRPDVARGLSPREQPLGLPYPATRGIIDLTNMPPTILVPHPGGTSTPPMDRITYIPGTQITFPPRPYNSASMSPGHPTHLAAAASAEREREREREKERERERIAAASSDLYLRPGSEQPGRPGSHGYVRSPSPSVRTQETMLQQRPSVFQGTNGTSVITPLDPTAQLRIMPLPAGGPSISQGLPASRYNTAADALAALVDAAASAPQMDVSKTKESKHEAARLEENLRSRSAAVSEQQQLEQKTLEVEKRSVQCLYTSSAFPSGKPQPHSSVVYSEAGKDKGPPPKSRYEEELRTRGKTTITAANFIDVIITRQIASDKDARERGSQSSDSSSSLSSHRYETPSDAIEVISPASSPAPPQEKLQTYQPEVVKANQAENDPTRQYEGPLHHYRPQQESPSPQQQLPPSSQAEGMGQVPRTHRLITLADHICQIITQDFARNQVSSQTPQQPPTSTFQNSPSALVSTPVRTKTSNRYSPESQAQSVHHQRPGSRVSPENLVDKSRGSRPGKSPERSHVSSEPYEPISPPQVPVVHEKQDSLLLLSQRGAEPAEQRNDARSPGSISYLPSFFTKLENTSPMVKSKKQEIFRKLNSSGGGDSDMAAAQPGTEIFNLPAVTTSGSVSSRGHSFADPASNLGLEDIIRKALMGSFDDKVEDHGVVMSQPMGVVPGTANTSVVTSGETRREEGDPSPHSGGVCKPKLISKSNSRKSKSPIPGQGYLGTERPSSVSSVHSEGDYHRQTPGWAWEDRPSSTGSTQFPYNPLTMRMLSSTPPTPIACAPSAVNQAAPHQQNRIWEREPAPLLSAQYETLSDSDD
UniProt P05627: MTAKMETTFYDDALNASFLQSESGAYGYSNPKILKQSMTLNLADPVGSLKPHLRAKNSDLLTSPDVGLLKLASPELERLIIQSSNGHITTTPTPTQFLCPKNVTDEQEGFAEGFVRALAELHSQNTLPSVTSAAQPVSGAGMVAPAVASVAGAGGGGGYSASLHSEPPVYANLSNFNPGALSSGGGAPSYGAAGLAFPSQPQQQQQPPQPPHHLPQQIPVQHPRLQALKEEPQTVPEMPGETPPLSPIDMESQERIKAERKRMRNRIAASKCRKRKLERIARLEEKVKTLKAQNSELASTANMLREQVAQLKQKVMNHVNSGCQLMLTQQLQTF
UniProt P35222: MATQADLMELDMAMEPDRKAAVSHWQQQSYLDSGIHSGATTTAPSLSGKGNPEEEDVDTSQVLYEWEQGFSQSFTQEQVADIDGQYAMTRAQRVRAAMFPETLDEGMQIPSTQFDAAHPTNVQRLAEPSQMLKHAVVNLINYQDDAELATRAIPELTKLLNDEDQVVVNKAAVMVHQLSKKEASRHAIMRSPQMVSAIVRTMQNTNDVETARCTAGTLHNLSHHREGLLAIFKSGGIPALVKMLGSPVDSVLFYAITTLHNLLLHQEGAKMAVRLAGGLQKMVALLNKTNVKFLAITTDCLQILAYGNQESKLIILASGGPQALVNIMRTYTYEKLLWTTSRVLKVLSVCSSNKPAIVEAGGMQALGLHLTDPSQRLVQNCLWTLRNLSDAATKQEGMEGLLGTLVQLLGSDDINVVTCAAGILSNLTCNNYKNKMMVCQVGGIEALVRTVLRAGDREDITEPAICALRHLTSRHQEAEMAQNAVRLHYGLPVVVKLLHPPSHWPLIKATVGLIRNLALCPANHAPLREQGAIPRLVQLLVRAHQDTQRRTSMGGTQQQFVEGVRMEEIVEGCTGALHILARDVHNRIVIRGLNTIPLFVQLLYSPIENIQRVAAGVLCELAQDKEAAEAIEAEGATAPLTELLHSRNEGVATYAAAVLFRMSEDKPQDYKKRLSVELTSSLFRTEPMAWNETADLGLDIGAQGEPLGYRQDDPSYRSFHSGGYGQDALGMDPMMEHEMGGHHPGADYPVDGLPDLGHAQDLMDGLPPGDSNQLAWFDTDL
UniProt P05412: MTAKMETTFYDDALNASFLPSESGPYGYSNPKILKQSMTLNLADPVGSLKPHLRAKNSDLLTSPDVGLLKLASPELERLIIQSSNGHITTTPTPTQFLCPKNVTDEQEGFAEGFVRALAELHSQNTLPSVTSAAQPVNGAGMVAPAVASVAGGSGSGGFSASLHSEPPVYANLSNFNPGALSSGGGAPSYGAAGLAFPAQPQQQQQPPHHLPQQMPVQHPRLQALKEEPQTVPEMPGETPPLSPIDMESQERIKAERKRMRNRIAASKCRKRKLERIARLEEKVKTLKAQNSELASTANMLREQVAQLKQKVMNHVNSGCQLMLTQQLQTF

Experiment [4] deals with T2, FLAG-tagged WDR13 deletion construct FL-293 (UniProt Q91V09).
T2 sequence: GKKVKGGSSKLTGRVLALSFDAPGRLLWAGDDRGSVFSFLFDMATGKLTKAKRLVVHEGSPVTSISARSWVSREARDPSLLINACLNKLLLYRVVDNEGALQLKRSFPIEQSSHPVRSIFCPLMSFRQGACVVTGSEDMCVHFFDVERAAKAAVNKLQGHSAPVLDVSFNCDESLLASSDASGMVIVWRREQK
The experiment is described as above.

For experiment [5], the target named is T3, FLAG-tagged WDR13 deletion construct FL-393 (UniProt Q91V09).
T3 sequence: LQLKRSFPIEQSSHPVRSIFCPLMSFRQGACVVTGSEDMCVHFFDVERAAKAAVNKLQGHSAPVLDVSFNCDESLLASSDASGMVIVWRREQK
The description is as above.

Experiment [6] deals with T4, FLAG-tagged WDR13 deletion construct FL-93 (UniProt Q91V09).
T4 sequence: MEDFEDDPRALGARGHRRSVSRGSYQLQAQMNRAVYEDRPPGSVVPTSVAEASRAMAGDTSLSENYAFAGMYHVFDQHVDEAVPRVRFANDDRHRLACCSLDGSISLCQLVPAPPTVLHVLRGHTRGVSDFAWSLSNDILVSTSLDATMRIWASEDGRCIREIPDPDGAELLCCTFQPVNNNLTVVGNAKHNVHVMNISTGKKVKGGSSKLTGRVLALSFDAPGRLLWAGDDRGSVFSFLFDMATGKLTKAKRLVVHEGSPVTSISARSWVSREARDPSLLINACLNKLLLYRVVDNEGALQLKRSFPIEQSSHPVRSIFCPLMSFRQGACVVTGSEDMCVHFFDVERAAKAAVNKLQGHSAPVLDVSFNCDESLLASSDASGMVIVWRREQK
Described as above.

Experiment [7] concerns the target WDR13 (endogenous, mouse embryonic fibroblasts) (mouse (endogenous in MEFs)) (UniProt Q91V09). As to the kind of experiment: co-IP; endogenous proteins from MEF lysate (50 mM Tris.HCl, 150 mM NaCl, 1 mM EDTA, 1% Triton X-100), pre-cleaned with Protein A, 4 μg anti-WDR13 antibody; Wdr13 knockout MEFs as control.

Results are given in words; binding and its absence hold for the method and conditions named. In cells and extracts the contact can be indirect. Some results given as binding are weak or reduced against the parent protein; the word gives no strength. For some assays here: Sequences can lack the tags named with a protein.

Data on 6 substances can be found in paper PMC5320654.

As for Myc-WDR13 (from UniProt Q91V09 1-485), the binding result with FLAG-tagged HDAC1 and in the experiment with FLAG-tagged HDAC3 was “binds” each time.

“NCoR1 (endogenous, HEK293) (from UniProt O75376 1-2440)”: the binding entry with FLAG-WDR13 [1] is “binds”.

Consider Myc-c-Jun (from UniProt P05627 1-334), for which the binding result with FLAG-WDR13 [2] is listed as “binds”.

In the case of β-catenin (from UniProt P35222 1-781), the binding entry (with FLAG-WDR13 [1]; in experiment [3]; in experiment [4]; in experiment [5]; in experiment [6]) was “no binding” each time.

Take “c-Jun (endogenous, HEK293) (from UniProt P05412 1-331)”: the binding result in the experiment with FLAG-WDR13 [1] was “binds”.

For “c-Jun (endogenous, mouse embryonic fibroblasts) (from UniProt P05627 1-334)”, in experiment [7], the binding entry is given as “binds”.
